# The supplement of paper PMC11417369
# The list shows a part of the results.
# Tested on: PF3D7_0420300 AP2 domain 1 (GST-tagged)
# Test: gcPBM binding intensity (ln(normalized median fluorescence intensity)); higher = stronger DNA binding
# Method in brief: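 Plasmodium falciparum DNA-binding domains carrying a GST tag were expressed in E. coli and applied for 1 h, at about 25 μg on average, to an Agilent 4 × 180k array. The array held primer-extended double-stranded 36-bp intergenic genomic probes together with negative controls, and binding took place in 1× PBS with 1% milk, 0.2 mg/ml BSA, 0.5% salmon testes DNA and 0.03% Triton X-100. An Alexa488 anti-GST antibody detected bound protein, and the array was scanned at 488 nm. Binding intensity is taken as the highest Masliner-normalised natural-log median intensity across replicate spots of either probe orientation.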
row,Sequence,gcPBM binding intensity (ln)
1,TACATATTTATATACACACACACACGGATATTTATA [CACACA_site7239],10.3
2,GAATTCCTTTGTGTATGTACATAATGATATTATTTT [XGTACX_site7369],9.48
3,TGATCAAATAAGTTTGCATGTCAACAATGCATATAT [TGCATGCA_site1025],9.11
4,CCCCTTGTGGATTCTACACACAAAAAGTCGTCAAAA [CACACA_site821],9.67
5,TAATTTTTTAAACACACACACATATATATATATATA [CACACA_site4230],9.66
6,CATATCTCAATTTATGCATGCAGGATTTTTCTAATA [TGCATGCA_site516],9.1
7,TTTTTTTTTTTTTGGTGTACATTTATAAAAAAAAAA [XGTACX_site8368],8.6
8,ACACAAAAAAAAAAAAAAAAAAAAAAAAAAAAGGAA [CACACA_negctrl_site1162],9.32
9,AATATGTACAGACATACACACATATATATATATATA [CACACA_site1222],9.46
10,ACATATAAGATTATGTGTCCACAAAAAAATAAAACA [XGTACX_site2867],9.18
11,TTTTTAATAACACTTTTGAAAAATAAAATAAAATAA [CACACA_negctrl_site821],8.8
12,TTTTATGTTCTTAATGCACACTTATAAGTATCTTAT [CACACA_site4895],9.41
13,TTTTTTTATTATTCTTATATAAAAATTTTTTTTAAT [CACACA_negctrl_site159],8.85
14,ATAGTACAACAGGTTCTTGACAAACAATATGAATGT [GTGCAC_negctrl_site442],9.44
15,TTTATATAATTTTTTTGTACATATATATGAATACAT [XGTACX_site2316],9.19
16,TAATTTTTTTTTTTTTTTCATTCTTTTCCTTTGATT [CACACA_negctrl_site1365],9.16
17,TTTTTTTTTTTTGGTAGTACATAATATTAATATAAT [XGTACX_site4422],9.2
18,TATATTTTCCTGCAAACACACATATAAATGGGTAGA [CACACA_site4451],9.24
19,ATATATATATATATGGTGCATGAAAATTTACTTTGA,9.15
20,ATATACTCATTTAATACACACAAAGAGAAAATTAAT [CACACA_site1923],9.64
21,GATATTTGTTCATATACACACTTTTGATAAAATATG [CACACA_site4807],9.56
22,TTTTTGTTATTATGTGTGCACATATATATATATATA,9.66

row,Sequence,gcPBM binding intensity (ln)
1,TATGTTATTATTTGTACACACACATATATATCCTTG [CACACA_site5910],10
2,AACAAATATCCCAAAAGTACACATATAAAAAAAAAA [XGTACX_site4126],9.52
3,ATTATCTTATGTTATTTATTTGTCCCACATTTGTTA [TGCATGCA_negctrl_site402],9.58
4,CATACACCCAGACACACACACATATATATATATATA [CACACA_site634],9.94
5,TACTAACATAAAGACACACACCACATAAAATAAATA [CACACA_site7663],9.77
6,GGAAGAAAACTTAGGTGTACATATAAAACGATATAA [XGTACX_site3118],9.38
7,TATGAACACAGACACACACACAAAAAAAAAAAAAAA [CACACA_site7037],9.27
8,ATAGTATACAGACACACACACACACCGATATATATA [CACACA_site8511],10.3
9,CTTATTTTGTTATAAGTGCATTTTTTAAAATTTCTT,9.12
10,TATACCTTTGCGTGTGCATGCGCTTATATATATTTT [TGCATGCA_site152],9.52
11,TTTATGTGTATGTTTACACACATAAAAAAATATATG [CACACA_site3039],9.51
12,ACAATTCCCGTATGATGTACTTTTTTCCACTTTTTC [XGTACX_site1811],9.64
13,TATTTTTAATATTTTGCATGCAGTATTTTATAAAAT [TGCATGCA_site250],9.14
14,CACACAAAGGAATATACACACATATTTATATTTATA [CACACA_site7841],9.66
15,AATAAATAAATAAATTAATAAATTAATAAATTAATA [GTGCAC_negctrl_site37],8.83
16,GTATATAATTTTTTATGTACTAAATTATATGTTTTT [XGTACX_site4907],9.26
17,ATCTATTTGTAAAGGGTGCGCATATCAATAAAAAAT [GTGCAC_site9503],9.45
18,CAAAATTTTTATAAGTCACACATTATCTAAGCTTAT [CACACA_site5747],9.1
19,TACCTAATATGTTATACACACATTAGAAGTACATAT [CACACA_site5375],9.48
20,ATAAAAAAAAAAAAAAAATATATATATATATATATA [XGTACX_negctrl_site424],8.78
21,TATATACTTTTTAATCACACTTCTTTAAAAAAAGTA [CACACA_negctrl_site1380],8.85
22,TGTAATAACGTTATAAAAAGTATAAAAAAAAAAAAA [CACACA_negctrl_site943],9.18

row,Sequence,gcPBM binding intensity (ln)
1,TTATTTTTATTATTTTGTATATATATTTATAGAAAA [XGTACX_negctrl_site465],8.95
2,TTTTAGGTCTGAATGTGTACTAAATAATATAAGTAT [XGTACX_site6554],9.14
3,TATATATATAACAACACACACAGATCATAAAACTGC [CACACA_site2161],10
4,AAAAAAAAAAAAAACACACACAAATTTAATATATAT [CACACA_site1695],9.91
5,TATATTTATTTTAACACACACATATATATATTATAT [CACACA_site4729],9.65
6,TCCCAAGGAGTAGGCACACATAAAATATTATACATA [CACACA_site717],9.19
7,AAAAAAAAAAAAAAAACACACACAAATTTAATATAT [CACACA_site8492],9.74
8,TACACCAAAAAAAAACGTACAAAATCCCACCCAGAC [XGTACX_site4622],10.6
9,AAAATTAAAGTAAGGACACACATATATAATACATAT [CACACA_site823],9.8
10,TACAACATATTCAAATGTACAAATATAGGAATGAAA [XGTACX_site2730],9.4
11,AACATAAAATGGATATGTACATAAAAATATATACTC [XGTACX_site7775],9.49
12,AGCGTATTATACTGACGTACATTTTATGTAACTCCA [XGTACX_site2715],9.1
13,CGTTAGAGGGCTTTATCACACATGAAAAAAAAAAAA [CACACA_site5155],8.84
14,TTATGTATTCATAACACATGCAAATAGGATCATATA [TGCATGCA_site731],9.26
15,CACACGCACAGACACACACACACATATAAATATGTA [CACACA_site6300],10.1
16,ATATGATTTCACAAGACACACACATACAAATTTATA [CACACA_site9296],9.74
17,TAAAGTTTTTTTTTAACACACACATAATAAAATAAA [CACACA_site8042],9.51
18,TAAAAAAATAAAAAAAAAAAATTATAAAATTATATA [GTGCAC_negctrl_site302],8.97
19,AAATATATTATAAATTGTACGTTTATATATATTATT [XGTACX_site5110],9.35
20,GACACATATAAATATTAACACACATAATGAATTATA [CACACA_site8881],9.51
21,ACATTATGCCATAAATGTACACATACATATACACAG [XGTACX_site1330],9.41
22,TAACTAAGGAATAATACACACAGAAATATATATTTA [CACACA_site344],9.75

row,Sequence,gcPBM binding intensity (ln)
1,GATGATGTTACTTAAGTGCATATAAATTATATTTTA [GTGCAC_site9940],9.14
2,TAGTATCAATCTTATACATGCATAAAATAATTATAA [TGCATGCA_site1052],9.05
3,GTGTTCTTGTTATACACACACATATTTATATTTATA [CACACA_site6615],9.82
4,TTTATTTATATAATTACACACATATATACGCAAATG [CACACA_site2794],9.48
5,TCATTAATTAAATCTTGTACATATTCATATATATAT [XGTACX_site2241],9.33
6,TTTTATTCATTAATTTGTACTTATCCTTTTGCTTAA [XGTACX_site1243],9.23
7,TAAGCCAAGGGATAAATAAAATAACAAAATGAAATC [GTGCAC_negctrl_site601],9.44
8,AAAGTATAGATGTATACACACACCAAACGTTAAAAA [CACACA_site3081],9.67
9,AAACAAAAAAGAAGCACACATATATATATATATATG [CACACA_site2456],9.59
10,TATACGCATATATACACACACATATATATATATATA [CACACA_site3416],9.66
11,ATCTGAAAAATTAATAGTACAATTAATAATTAAACC [XGTACX_site8523],9.31
12,TGTTAATTTCATTTTCTACACACCTATCCTTTTTTT [CACACA_site8157],9.69
13,ACAAATAAATATTCGCGTACTTATATAATATTACGA [XGTACX_site6428],9.13
14,AACAAACAAATAGTTTATTTTGATTTTTTTAAAAAT [CACACA_negctrl_site693],8.87
15,AAAAAAAATATCCGACGTACTATTTTCGTAGAAATA [XGTACX_site6292],9.05
16,TCATATGTGAAACACACACACACACCCAAAAAAACA [CACACA_site3247],10.1
17,GAACAAAAATACTTATGTACACATTAGCAAGGAAAA [XGTACX_site5622],9.41
18,TGTTTCTTATTTTTTTCACACACTAATCATTTCAAA [CACACA_site8695],9.69
19,ATTATGTTATTATTTTGTACACATAAATAATACGTT [XGTACX_site816],9.31
20,AGAAAAGAAATTAAATGTACACAACTATAACCAAAT [XGTACX_site8084],9.72
21,AAAAAAAAAAAATAAAGTACTAAATAATACATTATA [XGTACX_site6203],9.2
22,TGTACAACAATTTTTGCACACACCAAAACATAAAAT [CACACA_site1598],9.69
